Hit rate of the full screen: of about 340,000 compounds, about 1,000 (0.29%) were called active. Inconclusive results, whose numbers are uncertain, are shown with a selection of clear calls. No stated cut-off is given here; in the data, inconclusive means inhibition above about 29% without an active follow-up result; inactive means below that.
What follows are compounds tested against Genome polyprotein (Dengue virus type 2 (strain 16681-PDK53)) (UniProt P29991) (assay: Dengue-2 NS5 methyltransferase inhibitors, primary screen, biochemical, confirmation dose response (AID 588689)). Conditions: Dengue-2 NS5 methyltransferase capping enzyme assay, at 25 µM, active compounds read high.

Structure (SMILES) | inhibition
CS(=O)(=O)c1ccc(C(=O)OCC(=O)NCc2cccs2)cc1[N+](=O)[O-] | inconclusive: 59.2%
O=C(O)c1cc(-c2ccc(/C=C3/SC(=S)N(Cc4ccccc4)C3=O)o2)ccc1Cl | inconclusive: 36.7%
CCN(CC)c1ccc2cc(-c3nc4ccccc4[nH]3)c(=O)oc2c1 | inconclusive: 166%
O=C1CC(/C=C/c2ccco2)=Nc2ccccc2N1 | inconclusive: 31.6%
COC(=O)C[n+]1cccc2ccccc21 | inconclusive: 138%
Cc1cc(-c2ccccc2)c2c3c(c(-c4ccccc4)n2n1)c(=O)n(C)c(=O)n3C | inconclusive: 107%
COc1ccccc1Nc1ccc(C(=O)NCc2cccs2)cn1 | inconclusive: 34.1%
CCOc1ccc(N=C2NC(=O)S/C2=C\c2ccc(N(C)C)cc2)cc1 | inconclusive: 54.3%
CCOC(=O)c1c(NC(=O)C2C3CCC(O3)C2C(=O)O)sc(C)c1-c1ccc(C)cc1 (configuration not stated) | inactive: 16.7%
CCOC(=O)c1cc(-c2ccc(/C=N\n3cnnc3)o2)ccc1Cl | inactive: -3.91%
Cc1ccccc1-c1c(C)oc2cc(O)ccc2c1=O | inactive: 1.35%
N=c1oc2ccc3ccccc3c2cc1-c1nc(-c2ccccc2)cs1 | inconclusive: 50.7%
CC1CCN(c2nc3ccccc3nc2C(C#N)C(=O)OC2CCCCC2)CC1 (configuration not stated) | inconclusive: 56.7%
O=C(CCCN1C(=O)/C(=C/c2ccccc2Cl)SC1=S)NNC(=O)c1ccc(Cl)cc1Cl | inactive: 3.09%
CCOc1ccc(NC(=O)c2ccc(S(=O)(=O)N3CCOCC3)cc2)cc1 | inactive: 1.78%
Cc1ccc(N/C=C2/Sc3ccccc3NC2=O)cc1 | inconclusive: 80%
COc1cc2c(cc1OC)-c1cc3ccc4c(c3c[n+]1CC2)OCO4 | inconclusive: 120%
O=C1NC(=O)/C(=C\c2ccccc2Oc2ccc(F)c(F)c2)S1 | inactive: 24.6%
Cc1cc(C(=O)CSc2nnc(N)s2)c(C)n1Cc1ccco1 | inactive: -12.5%
CCN(CC)c1nc2ccccc2nc1C(C#N)C(=O)NCCc1ccccc1 (configuration not stated) | inconclusive: 79.3%
CCOc1ccc(S(=O)(=O)Nc2nc3ccccc3nc2-n2ccc(=NC(=O)c3cccs3)cc2)cc1 | inconclusive: 138%
COCCN(C(=O)CSc1nnc(-c2ccccc2F)n1N)c1c(N)n(Cc2ccccc2)c(=O)[nH]c1=O | inactive: 11.2%

Structure (SMILES) | inhibition
CC(C)NC(=O)COC(=O)c1ccccc1Oc1ccccc1 | inactive: -2.2%
CCCCn1c(N)c(NCc2ccccc2)c(=O)[nH]c1=O | inconclusive: 37.8%
COCCn1c2nc(=O)n(-c3ccccc3)c(=O)c-2nc2ccccc21 | inconclusive: 72%
Cc1cccc(C)c1NC(=O)CSc1nnc(-c2ccco2)c(-c2ccco2)n1 | inconclusive: 74.8%
COc1ccccc1OCCNC(=O)C(CCSC)NS(=O)(=O)c1ccccc1F (configuration not stated) | inactive: -7.2%
CCOC(=O)C1(C)/C(=N/Nc2ccc(Cl)cc2)C(=O)C(=O)N1c1ccccc1 (configuration not stated) | inactive: 3.28%
COc1cc(C2C(C#N)=C(N)OC3=C2C(=O)CCC3)c([N+](=O)[O-])cc1OC (configuration not stated) | inconclusive: 30.2%
Cc1cccn2c(=O)c3cc(C(=O)NC4CCCCC4)c(=N)n(Cc4ccc(F)cc4)c3nc12 | inconclusive: 31.6%
Cc1ccc(N2C(=O)c3cccc4c(N)ccc(c34)C2=O)c2cccnc12 | inconclusive: 36.9%
N#CC(C#N)=C1C=C2C=C(N3CCOCC3)CCC2CC1 (configuration not stated) | inconclusive: 196%
CCCCn1c(N)c(N(CC(C)C)C(=O)C2CCCO2)c(=O)[nH]c1=O (configuration not stated) | inactive: -0.74%
CC(=O)N1CCN(S(=O)(=O)c2cccc(C(=O)NNC(=O)c3ccc(Br)cc3)c2)CC1 | inconclusive: 86.9%
CCOc1ccc(Cn2c3ccc(OC)cc3c3nc4ccccc4nc32)cc1 | inconclusive: 113%
CC1=CC(=C2N=C(c3ccccc3)OC2=O)C=C(C)O1 | inconclusive: 77.5%
O=C1NN(c2ccccc2)C(=O)/C1=C/c1ccc(Sc2ccc(Cl)cc2)o1 | inactive: 29.5%
N#Cc1c(NC(=O)C2CC=CCC2C(=O)O)sc2c1CCCCCC2 (configuration not stated) | inactive: 5.78%
COc1ccc(-n2nc(C(=O)NCC(=O)N(C)Cc3ccccc3)c3ccccc3c2=O)cc1 | inactive: -2.44%
C=CCn1cc(/C=C/c2cc[n+](C)cc2)c2ccccc21 | inconclusive: 70.6%
COc1cc(/C=C2/C(=O)NN(c3cccc(F)c3)C2=O)ccc1OC(=O)c1ccco1 | inactive: 23%
CCCCCN1C(=O)/C(=C/c2c(N3CCc4ccccc4C3)nc3ccccn3c2=O)SC1=S | inconclusive: 46.4%
COc1ccc(-c2cc(C(F)(F)F)c3c(N)c(C(=O)NCCSC)sc3n2)cc1 | inconclusive: 79.4%
CCNc1cc(Nc2c(C)n(C)n(-c3ccccc3)c2=O)c([N+](=O)[O-])c2nonc12 | inactive: 6.99%

Structure (SMILES) | inhibition
COc1cc(NC(=O)C2CCCCC2)c2ncccc2c1 | inactive: -4.93%
O=[N+]([O-])c1c(Nc2ccccc2O)cc(N2CCOCC2)c2nonc12 | inactive: 6.36%
COC(=O)c1ccc(N2NC(=O)/C(=C/c3ccc(OC)c(OC)c3)C2=O)cc1 | inactive: 34.3%
CCCCNC(=O)c1cc2c(=O)n3cccc(C)c3nc2n(Cc2ccncc2)c1=N | inconclusive: 64.9%
Oc1ccc2c(c1)OCC1(O)Cc3cc(O)c(O)cc3C21 (configuration not stated) | inconclusive: 195%
COc1cccc(OCCCn2cc(/C=C3/C(=N)N4C=C(C)SC4=NC3=O)c3ccccc32)c1 | inconclusive: 44.9%
Cc1[nH]c2ccccc2c1SCC(=O)O | inactive: -8.76%
COc1ccc(Nc2nc3ccccc3nc2NS(=O)(=O)c2cccs2)c(OC)c1 | inconclusive: 29.5%
CCCCOc1cc(C(=O)NCCN(CC)CC)c2ccccc2n1 | inconclusive: 80.7%
CCc1ccc(S(=O)(=O)Nc2ccc(O)c3ccccc23)cc1 | inactive: 36.9%
NC(N)=NCCCS(=O)(=O)Nc1ccc(Nc2c3ccccc3nc3cc([N+](=O)[O-])ccc23)cc1 | inconclusive: 38.2%
COc1cccc(C2C3CN(C)CC=C3C(C#N)=C(N)C2(C#N)C#N)c1OC (configuration not stated) | inconclusive: 45.7%
Cc1coc2c1C(=O)C(=O)c1c-2ccc2c(C)cccc12 | inconclusive: 69.2%
N#CCCN(CCC#N)C(=O)C1c2ccccc2Oc2ccccc21 | inconclusive: 82.8%
COc1ccccc1C(=O)Nc1ccnn1C1CCN(Cc2cn(C)c3ccccc23)CC1 | inactive: -3.88%
COc1ccc(CNS(=O)(=O)NCc2ccc(C)cc2)cc1OC | inactive: -10.9%
Cc1ccc(NC(=O)/C(C#N)=C/c2ccc(C)s2)c(C)c1 | inconclusive: 79.3%
O=C(CSc1nnc(-c2ccc(Cl)cc2)n1-c1ccccc1)N/N=C/c1ccccc1C(=O)O | inactive: -3.12%
CCCN1Cc2cccc(C(=O)NCCc3cccc(C)c3)c2C1=O | inactive: 3.25%
COc1ccccc1N1C(C)=CC(=C(C#N)c2nc3ccccc3s2)C=C1C | inconclusive: 35.7%
COc1ccc(/C=N/NC(=O)c2nn(-c3ccccc3)c(=O)c3c(N)scc23)cc1 | inactive: 50%
CN1CCc2cc3c(c4c2[C@H]1[C@H](O)c1ccccc1-4)OCO3 | inconclusive: 35.2%

Structure (SMILES) | inhibition
COc1cccc(/C(O)=C/c2nc3ccc(C(=O)NCCc4ccc(Cl)cc4)cc3[nH]c2=O)c1 | inconclusive: 93%
C=C(c1cn(C(C)=O)c2ccccc12)c1cn(C(C)=O)c2ccccc12 | inconclusive: 33.9%
N#C/C(=C\C1=C(N2CCOCC2)C(=C\c2ccc(Cl)cc2)/CC1)C(=O)Nc1ccccc1F | inconclusive: 59.2%
Cn1cc(/C=C2\SC(=O)NC2=S)c2ccccc21 | inconclusive: 36.9%
CCN1CCN(C(=O)/C=C/c2ccc(OC)cc2)CC1 | inactive: 0%
CCOC(=O)C1CCCN(C(=O)C2c3ccccc3Oc3ccccc32)C1 (configuration not stated) | inconclusive: 153%
CCN(CC)C1=CC2=CC(=C(C#N)C#N)CCC2CC1 (configuration not stated) | inconclusive: 182%
O=C1NC(=S)N/C1=C\c1cccc([N+](=O)[O-])c1 | inactive: 2.76%
CCN=c1scc(C)n1/N=C/c1cc(Br)c(O)c(Br)c1 | inactive: 9.36%
CCC1c2ccc(C)n2CCN1C(=O)Nc1ccccc1C(=O)OC (configuration not stated) | inconclusive: 41.8%
COC(=O)c1c(C(=O)OC)c2ccccn2c1C(=O)c1ccccc1 | inactive: -4.66%
Cc1nc2ccc([N+](=O)[O-])cc2nc1C | inactive: -4.51%
O=C1C2=C(SCCS2)C(=O)N1CCCO | inconclusive: 53.3%
O=C1CSC(=S)N1/N=C/c1cc(Br)c(O)c(Br)c1 | inconclusive: 153%
CN1/C(=C/C=C(C#N)C#N)C(C)(C)c2ccccc21 | inconclusive: 154%
CCc1nnc(NS(=O)(=O)c2ccc(NC(=S)NC(=O)/C=C/c3ccc(OC)cc3)cc2)s1 | inactive: -1.6%
CC(=O)N(c1ccccc1)C1CCCC1 | inactive: -5.78%
COc1cc(/C=C(\C#N)c2nc3ccccc3[nH]2)cc(OC)c1O | inconclusive: 153%
CCCCCN(C(=O)CCC(=O)OCc1cccc(C(F)(F)F)c1)c1c(N)n(CCCC)c(=O)[nH]c1=O | inactive: -5.15%
CC1=Nc2ccccc2/C1=C/c1sc(=S)n(-c2cccc(C(=O)O)c2)c1O | inconclusive: 66.5%
O=C(O)C(c1ccccc1)N1C(=O)/C(=C\c2ccc(O)c(O)c2)SC1=S (configuration not stated) | inconclusive: 45.9%

From PubChem BioAssay AID588689 (Southern Research Specialized Biocontainment Screening …, 2011)
